Data from PubChem BioAssay AID504333 (National Center for Advancing Translational Sciences (NCATS), 2011).
Among all 360,000 compounds or so, about 16,000 (4.4%) were called active. Inconclusive means that the source gave no clear call. Such entries were picked first, then a sample of the others. Calls come from the whole dose curve; as a rule, active = well fitted inhibition curve with a large enough effect; inconclusive = small, poorly fitted or top-dose-only effect; inactive = no such curve, though single readings can be large or run the other way. A potency beside an inconclusive call is a rough fit, not a confirmed value.

target: Bromodomain adjacent to zinc finger domain protein 2B (Homo sapiens) (UniProt Q9UIF8); test: qHTS Assay for Inhibitors of BAZ2B; conditions: AlphaScreen BAZ2B-H3K14Ac peptide displacement; series mostly up to 114 µM; note: nearly all actives have a fitted effect of over 60% in size
Chain of UniProt Q9UIF8 (Q9UIF8 whole entry, looked up, the tested form may be a part): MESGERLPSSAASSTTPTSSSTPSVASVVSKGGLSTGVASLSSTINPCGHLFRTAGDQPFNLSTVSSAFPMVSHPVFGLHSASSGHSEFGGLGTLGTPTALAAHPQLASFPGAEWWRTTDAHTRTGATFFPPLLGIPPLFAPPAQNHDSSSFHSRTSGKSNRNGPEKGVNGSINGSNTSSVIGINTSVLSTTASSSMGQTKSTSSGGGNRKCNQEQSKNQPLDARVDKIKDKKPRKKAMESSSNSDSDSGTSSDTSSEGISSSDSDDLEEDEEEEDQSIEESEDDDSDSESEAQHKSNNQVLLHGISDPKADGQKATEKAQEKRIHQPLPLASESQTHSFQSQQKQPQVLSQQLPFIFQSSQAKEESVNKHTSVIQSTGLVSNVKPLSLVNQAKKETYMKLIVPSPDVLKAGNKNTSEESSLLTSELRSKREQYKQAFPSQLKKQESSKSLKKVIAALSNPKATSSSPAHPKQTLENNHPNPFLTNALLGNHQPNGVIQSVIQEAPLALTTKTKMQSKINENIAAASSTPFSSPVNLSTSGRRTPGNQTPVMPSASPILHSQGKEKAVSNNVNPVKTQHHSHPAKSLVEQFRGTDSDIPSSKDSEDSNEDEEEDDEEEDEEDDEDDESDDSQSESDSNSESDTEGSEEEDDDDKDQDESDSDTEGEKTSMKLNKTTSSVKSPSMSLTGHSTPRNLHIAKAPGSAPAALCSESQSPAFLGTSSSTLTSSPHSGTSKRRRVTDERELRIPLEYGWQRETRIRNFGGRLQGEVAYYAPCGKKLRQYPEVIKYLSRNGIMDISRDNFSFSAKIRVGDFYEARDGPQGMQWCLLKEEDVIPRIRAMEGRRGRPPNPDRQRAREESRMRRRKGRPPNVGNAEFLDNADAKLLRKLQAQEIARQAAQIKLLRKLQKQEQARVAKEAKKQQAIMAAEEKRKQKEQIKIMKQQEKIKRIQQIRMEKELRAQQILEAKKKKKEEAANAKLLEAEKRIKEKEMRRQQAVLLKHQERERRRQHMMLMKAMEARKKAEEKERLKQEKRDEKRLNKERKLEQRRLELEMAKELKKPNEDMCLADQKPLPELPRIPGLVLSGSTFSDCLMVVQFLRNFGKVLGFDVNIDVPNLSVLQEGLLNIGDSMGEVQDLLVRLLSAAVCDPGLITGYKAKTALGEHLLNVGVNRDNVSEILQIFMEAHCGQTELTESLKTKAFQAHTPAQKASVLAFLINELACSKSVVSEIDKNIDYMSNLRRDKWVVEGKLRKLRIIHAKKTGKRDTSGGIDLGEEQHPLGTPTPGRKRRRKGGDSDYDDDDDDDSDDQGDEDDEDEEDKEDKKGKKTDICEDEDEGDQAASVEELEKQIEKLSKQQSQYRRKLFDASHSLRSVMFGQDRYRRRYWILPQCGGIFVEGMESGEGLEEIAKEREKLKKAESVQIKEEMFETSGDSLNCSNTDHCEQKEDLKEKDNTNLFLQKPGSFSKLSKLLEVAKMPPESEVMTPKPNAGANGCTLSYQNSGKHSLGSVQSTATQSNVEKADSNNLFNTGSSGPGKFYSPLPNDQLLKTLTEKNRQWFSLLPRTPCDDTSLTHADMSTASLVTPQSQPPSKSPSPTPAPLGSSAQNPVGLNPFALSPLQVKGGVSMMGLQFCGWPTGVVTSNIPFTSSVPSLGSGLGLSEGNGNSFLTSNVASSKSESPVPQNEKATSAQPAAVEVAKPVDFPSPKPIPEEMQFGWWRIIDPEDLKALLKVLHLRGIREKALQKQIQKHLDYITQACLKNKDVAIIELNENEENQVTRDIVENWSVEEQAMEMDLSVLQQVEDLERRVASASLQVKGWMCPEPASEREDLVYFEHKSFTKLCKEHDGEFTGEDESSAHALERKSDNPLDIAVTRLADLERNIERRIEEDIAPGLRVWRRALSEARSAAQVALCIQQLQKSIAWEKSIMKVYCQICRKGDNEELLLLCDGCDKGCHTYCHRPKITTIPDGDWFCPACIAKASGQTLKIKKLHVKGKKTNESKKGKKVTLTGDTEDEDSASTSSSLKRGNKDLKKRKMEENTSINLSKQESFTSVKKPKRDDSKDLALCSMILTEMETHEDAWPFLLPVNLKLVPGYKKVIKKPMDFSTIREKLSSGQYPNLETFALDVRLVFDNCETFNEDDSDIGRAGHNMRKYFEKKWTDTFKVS
Outline: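 Compounds, titrated to a top concentration of 110 uM, were incubated 30 min at room temperature with preformed BAZ2B/acetyl-K14 H3 peptide complex (50 nM each). Proximity signal was measured by AlphaScreen after 20 min with beads.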
Potency is the fitted concentration of half-maximal effect; tags give direction and shape of the fitted curve.

| SMILES | Potency |
| --- | --- |
| O=C(c1ccc2nc(-c3ccco3)c(-c3ccco3)nc2c1)N1CCN(c2ccccc2)CC1 | inconclusive: 22.4 µM [inhibitor, full curve] |
| COc1ccc(-c2csc(Nc3cc(C)ccn3)n2)cc1OC | inconclusive: 31.6 µM [inhibitor, single point] |
| Clc1ccccc1CNCC1CCCO1 (stereo not drawn) | inactive |
| COc1ccc2oc(-c3ccc(NC(=O)c4ccc(Cl)cc4Cl)cc3)nc2c1 | inactive |
| O=C1/C(=C/c2ccccc2Cl)SC(=S)N1CCCC(=O)N(CCO)c1ccccc1 | active: 3.16 µM |
| CSc1n[nH]c(/N=C/c2oc(O)c3ccccc23)n1 | inconclusive: 79.4 µM [inhibitor, partial curve] |
| CCOc1ccc(/C=C/c2nc(C#N)c(N3CCC(C)CC3)o2)cc1 | inconclusive: 8.91 µM [inhibitor, full curve] |
| COc1ccccc1CNC(=O)CCCCn1c(=O)c2ccccc2n(CC(=O)Nc2cccc(Cl)c2)c1=O | inactive |
| O=C(N/N=C/c1ccc(Br)cc1)c1ccccc1-n1cccc1 | inconclusive: 44.7 µM [inhibitor, partial curve] |
| Cc1cccc(NC(=O)N2CCN3CCCCC3C2)c1C (stereo not drawn) | inconclusive: 89.1 µM [inhibitor, single point] |
| COc1cc(N=c2ssnc2Cl)cc(OC)c1 | active: 44.7 µM |
| COc1ccccc1N1CCN(c2csc3ccccc3c2=O)CC1 | inconclusive: 79.4 µM [inhibitor, partial curve] |
| Cc1ccc(-c2nnc(SCC#CCOC(=O)c3cccs3)o2)cc1 | inactive |
| Cc1ccc(COc2ccsc2-c2n[nH]c(=S)n2C)cc1 | inconclusive: 50.1 µM [inhibitor, partial curve] |
| Cc1cc(OC(C)C(=O)NC(Cc2c[nH]c3ccc(O)cc23)C(=O)O)c2c(C)c(C)c(=O)oc2c1 (stereo not drawn) | inconclusive: 63.1 µM [inhibitor, partial curve] |
| COc1ccc(OC)c(Nc2nc(-c3sc(C)nc3C)cs2)c1 | active: 31.6 µM |
| O=C(COc1cccnc1[N+](=O)[O-])N1CCc2ccccc21 | inactive |
| CCCc1cc(=O)oc2cc(C)cc(OC(C)C(=O)NCc3ccccn3)c12 (stereo not drawn) | inactive |
| CCNc1nc(-c2ccc(Cl)cc2)cs1 | inconclusive: 56.2 µM [inhibitor, partial curve] |
| CCN(CC(=O)Nc1ccc(NC(C)=O)cc1)C(=O)c1ccc(N2CCC(C)CC2)c([N+](=O)[O-])c1 | inconclusive: 50.1 µM [inhibitor, partial curve] |
| NC1=NC(c2cc(F)cc(F)c2)n2c(nc3ccccc32)N1 (stereo not drawn) | inconclusive: 89.1 µM [inhibitor, single point] |
| Cc1cccc(Nc2ccccc2C(=O)OCC(=O)NCc2ccco2)c1C | active: 50.1 µM |
| O=C(CCc1ccccc1)NN1C(=O)C2C3C=CC(O3)C2C1=O (stereo not drawn) | inactive |
| CC(=O)Nc1ccc(C(=O)Nc2nc(-c3ccccn3)cs2)cc1 | active: 5.62 µM |
| Cc1ccc(C)n1-c1nnc(N2CCCC(C(=O)NCc3cccc(Br)c3)C2)s1 (stereo not drawn) | inconclusive: 79.4 µM [inhibitor, single point] |

| SMILES | Potency |
| --- | --- |
| Cc1cc(NC(=O)C(C)SCC(=O)OCc2ccc(Cl)cc2Cl)no1 (stereo not drawn) | inactive |
| COc1ccc(C2CC(=O)Oc3ccc(C(C)(C)C)cc32)cc1 (stereo not drawn) | inconclusive: 89.1 µM [inhibitor, single point] |
| CN1CC(c2ccccn2)C2(SC(=S)N(Cc3ccccc3)C2=O)C12C(=O)Nc1ccccc12 (stereo not drawn) | active: 14.1 µM |
| O=[N+]([O-])c1ccc(O)c(/C=N\N=C2c3ccccc3-c3ccccc32)c1 | inconclusive: 10 µM [inhibitor, full curve] |
| CCCn1c(SCC(=O)c2cc(C)n(C3CC3)c2C)n[nH]c1=O | inconclusive: 89.1 µM [inhibitor, single point] |
| Cc1ccc[n+](C2C(c3ccc([N+](=O)[O-])cc3)C(C#N)=C([S-])NC2(O)C2CC2)c1 (stereo not drawn) | inconclusive: 79.4 µM [inhibitor, partial curve] |
| COc1ccc(N2CCN(S(=O)(=O)c3ccc4c(c3)OCCO4)CC2)cc1 | inconclusive: 12.6 µM [inhibitor, full curve] |
| COc1cccc(-c2c(C(=O)N/N=C/c3cccs3)nnn2-c2nonc2N)c1 | inconclusive: 79.4 µM [inhibitor, single point] |
| Cc1cnc(=O)[nH]c1SCC(=O)Nc1cc(C(F)(F)F)ccc1Cl | inactive |
| C=C(C)CC1N(c2cccc(OC)c2)C(=O)C2C(C(=O)O)C3C=CC21O3 (stereo not drawn) | inactive |
| O=C(NC(Cc1c[nH]c2ccccc12)C(=O)Nc1ccc(F)c([N+](=O)[O-])c1)c1cccs1 (stereo not drawn) | inconclusive: 28.2 µM [inhibitor, full curve, poor fit] |
| Cc1cc2oc3c(c(=O)c2cc1C)C(c1ccc(C(C)C)cc1)N(c1nc(C)c(C)s1)C3=O (stereo not drawn) | inactive |
| Cc1ccc(CNC(=O)CCCN2C(=O)CCn3nc(-c4cccn4C)cc32)cc1 | inconclusive: 44.7 µM [inhibitor, partial curve] |
| CCc1ccc(-n2c(=S)sc3c(=O)n(-c4ccccc4OC)c(=S)[nH]c32)cc1 | inconclusive: 79.4 µM [inhibitor, partial curve] |
| Cc1cc(OC(C)C(=O)NCc2ccccn2)c2c(C)cc(=O)oc2c1 (stereo not drawn) | inactive |
| Cn1cncc1C#Cc1ccc2cc(CCO)oc(=O)c2c1 | active: 56.2 µM |
| CCOC(=O)c1ccc(-c2ccc(/C=N/NC(=O)CN(c3ccccc3Cl)S(C)(=O)=O)o2)cc1 | inconclusive: 79.4 µM [inhibitor, single point] |
| O=C1c2cccnc2C(Nc2ccccc2)N1Cc1ccco1 (stereo not drawn) | active: 56.2 µM |
| COCc1cc(C)nc(N/N=C/c2ccc(-c3ccc(Cl)cc3[N+](=O)[O-])o2)c1C#N | inconclusive: 50.1 µM [inhibitor, partial curve] |
| N#Cc1cc2c(N)c(C(=O)Nc3ccccc3)sc2nc1N | inconclusive: 89.1 µM [inhibitor, single point] |
| CN(Cc1ccco1)S(=O)(=O)c1cc(F)ccc1CN1C(=O)c2cccnc2C1=O | inconclusive: 28.2 µM [inhibitor, single point] |
| CCOC(=O)c1cccc(OCC(O)CNCCOc2ccccc2F)c1 (stereo not drawn) | inconclusive: 50.1 µM [inhibitor, partial curve] |
| CCCn1c(SCC(N)=O)nnc1-c1ccco1 | inactive |
| CC(=O)c1ccc(NS(=O)(=O)c2cccc(C(=O)Nc3ccccc3C(=O)O)c2)cc1 | inconclusive: 89.1 µM [inhibitor, single point] |
| COc1ccc(-c2nc(-c3ccccc3)c(-c3cc([N+](=O)[O-])ccc3C)[nH]2)cc1OC | active: 44.7 µM |

| SMILES | Potency |
| --- | --- |
| Cc1cc(C)cc(NC(c2nnc(-c3cccc(F)c3)o2)c2ccc(F)cc2Cl)c1 (stereo not drawn) | inactive |
| CC(C)C(OC(=O)c1cccs1)C(=O)NCCc1ccccc1 (stereo not drawn) | inactive |
| CSc1nc2c(C)c(C)c(C)c(C)c2[nH]1 | inactive |
| COc1ccc(S(=O)(=O)NCC(c2ccco2)N2CCN(c3ccc(F)cc3)CC2)cc1 (stereo not drawn) | inconclusive: 79.4 µM [inhibitor, single point] |
| CCN1C(=O)[C@H]2[C@@H](c3ccc(SC4CCCCC4)cc3)N[C@@](CC(C)C)(C(=O)OC)[C@H]2C1=O | inactive |
| c1ccc(-c2ccnc3nc(-n4cccc4)nn23)cc1 | inconclusive: 89.1 µM [inhibitor, single point] |
| O=C(c1cnc2c(c1)COc1ccccc1-2)c1ccccc1O | inconclusive: 10 µM [inhibitor, full curve] |
| Cc1ccc(NC(CC(=O)c2ccccc2)C(=O)O)cc1Cl (stereo not drawn) | inactive |
| Cc1ccccc1Cn1cc(CCC(=O)NCc2cccc(Br)c2)c2ccccc21 | inconclusive: 79.4 µM [inhibitor, single point] |
| C=CCNS(=O)(=O)c1ccc2c(c1)n(C)c(=O)n2C | inconclusive: 89.1 µM [inhibitor, single point] |
| c1ccc(-c2ccccc2OCCCCn2ccnc2)cc1 | active: 50.1 µM |
| CC(=O)c1ccc2c(c1)N(C)c1ccccc1S2 | inactive |
| OC1(c2ccc(OC(F)F)cc2)CSC(=Nc2cccnc2)N1Cc1ccco1 (stereo not drawn) | inconclusive: 50.1 µM [inhibitor, partial curve] |
| Cc1cccc(C(=O)Nc2ccc(C(=O)OCc3cc(=O)n4c(C)csc4n3)cc2)c1 | active: 79.4 µM |
| COCCCn1c(SCC(=O)n2c(C)c(C)c3ccccc32)nnc1-c1ccoc1C | inconclusive: 50.1 µM [inhibitor, partial curve] |
| CC(=O)Nc1ccccc1NC(=O)C/C(C)=N/NC(=O)c1ccncc1 | inconclusive: 39.8 µM [inhibitor, single point] |
| CCOc1c(Cl)cc(CNCc2ccccn2)cc1OC | active: 56.2 µM |
| O=C1c2cccnc2C(=O)N1Cc1ccc(S(=O)(=O)NCc2ccco2)s1 | active: 79.4 µM |
| COCCCNCCCCOc1c(Cl)cc(C)cc1Br | active: 22.4 µM |
| CC(C)c1ccc(CN(Cc2ccco2)c2cnc(S(C)(=O)=O)nc2C(=O)Nc2ccccc2)cc1 | inconclusive: 79.4 µM [inhibitor, single point] |
| CCCCCC(=O)Nc1ccc(-c2nnc3n2CCCCC3)cc1 | inactive |
| Cc1cccc(N2CCN(C(=O)c3csc4ccccc34)CC2C)c1 (stereo not drawn) | inconclusive: 79.4 µM [inhibitor, single point] |
| Cc1ccc(C(=O)N/N=C\c2ccccn2)cn1 | inconclusive: 10 µM [inhibitor, full curve] |
